The campaign covered roughly 150,000 compounds. About 6,500 (4.3%) were called active. Inconclusive results, whose numbers are uncertain, are shown with a selection of clear calls. Calls follow the shape of the dose curve; as a rule, active = well fitted inhibition curve with a large enough effect (not every such curve was filed as active); inconclusive = small, poorly fitted or top-dose-only effect, or another doubt; inactive = no such curve, though single readings can be large or run the other way. Potencies of inconclusive entries are left out as doubtful fits.
target: 15-hydroxyprostaglandin dehydrogenase [NAD(+)] (Homo sapiens) (UniProt P15428); assay: qHTS Assay for Inhibitors of HPGD (15-Hydroxyprostaglandin Dehydrogenase); conditions: purified HPGD, NADH fluorescence kinetic, PGE2 substrate; activity change, negative = inhibition: hits give low values
Method in brief: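 NADH formation kinetics: reaction with 30 uM PGE2 and 1 mM NAD+ (final), 20 nM enzyme, Tris-HCl pH 8 with Tween 20, after 15 min compound preincubation at room temperature. Fluorescence change, last versus first of five reads.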
% is scaled to controls: 0 for no effect and ±100 for the full control effect; potency is read from the fitted curve at half-maximal effect; tags tell the direction and shape of the fitted curve.

UniProt P15428, sequence (P15428 whole entry, looked up): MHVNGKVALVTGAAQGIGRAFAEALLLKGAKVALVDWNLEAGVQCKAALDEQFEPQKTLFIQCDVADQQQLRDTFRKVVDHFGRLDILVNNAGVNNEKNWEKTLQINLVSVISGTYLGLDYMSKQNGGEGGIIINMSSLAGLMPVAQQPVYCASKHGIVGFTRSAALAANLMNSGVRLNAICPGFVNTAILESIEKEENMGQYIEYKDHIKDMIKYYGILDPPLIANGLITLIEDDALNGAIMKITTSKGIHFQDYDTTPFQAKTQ

SMILES | Potency | activity change, negative = inhibition
O=C(c1ccc(N2C(=O)C3CCCCC3C2=O)cc1)N1CCCCC1 (configuration not stated) | active: 1 µM | –
C=CCNC(=O)C1CCN(c2nc(C)cc(-c3ccccc3)n2)CC1 | inconclusive [inhibitor, partial curve] | –
Cc1ccccc1N(C(=O)c1cccs1)c1nc2ccccc2s1 | inconclusive [inhibitor, single point] | –
C=CCNC(=S)NNc1nc2c(c(=O)[nH]1)C1(CCCC1)Cc1ccccc1-2 | inconclusive [inhibitor, partial curve] | –
C=CCn1c(-c2cccnc2Cl)nc2cc(Cl)c(Cl)cc21 | inconclusive [inhibitor, partial curve] | –
CCOC(=O)c1cc(C(C)=O)c(=O)n(C)c1N | inconclusive [inhibitor, partial curve] | –
O=S(=O)(O)c1cc(O)c2c(O)c(N=Nc3cccc4ccccc34)c(S(=O)(=O)O)cc2c1 | – | inactive: -13.4%
CCOC(=O)/C(C#N)=C/c1ccc(OCC(=O)Nc2cc(C)ccc2C)c(OC)c1 | inconclusive [inhibitor, partial curve] | –
CCOc1ncccc1C(=O)OCC(=O)c1ccc(Cl)s1 | active: 20 µM | –
CCCn1c(-c2ccccc2)nc2c(=O)n(C)c(=O)[nH]c21 | inconclusive [inhibitor, partial curve] | –
CSc1nc(Cl)cc(N(CCO)CCO)n1 | – | inactive: -3.77%
Cc1cccc2c1N(CCCOc1ccc(C(C)(C)C)cc1)C(=O)C2=O | active: 8.91 µM | –
COc1ccc(CNC(=O)c2cccc(-c3ccc(C)c4ccccc34)n2)cc1 | inconclusive [inhibitor, partial curve] | –
COc1ccc(/C=N/NC(=O)c2ccc(CSc3nc(C)cc(C)n3)cc2)c(OC)c1OC | active: 35.5 µM | –
O=C(Oc1ccnc2cc(Cl)ccc12)N1CCCCCC1 | active: 31.6 µM | –
O=C1CC[C@@]23/C=C/C(=O)NCCCCNCCCNC(=O)/C=C/c4ccc(c2c4)OC3C1 (some centres not stated) | – | inactive: -9.2%
Nc1nc(CSc2nc3ccccc3[nH]2)cs1 | inconclusive [inhibitor, partial curve] | –
CCOC(=O)c1c(NC(=O)CC)sc(C(C)=O)c1C | inconclusive [inhibitor, single point] | –
Oc1cc(Cc2ccccc2)cnc1CN1CCCCC1 | active: 25.1 µM | –
COC(=O)c1cc(C#N)c(N(C)Cc2ccccc2)nc1C | inconclusive [inhibitor, single point] | –
Cc1ccc(-n2c(C)nc3oc4ccccc4c(=O)c3c2=O)cc1 | inconclusive [inhibitor, partial curve] | –
CCCNC(=O)C/C(C)=N/NC(=O)COc1ccc(C)cc1Br | inconclusive [inhibitor, partial curve] | –
CCN1C(=S)SC(=O)C1=C1C=C(C)N(CCO)C(C)=C1 | inconclusive [inhibitor, partial curve] | –
CCCc1cc(=O)oc2c(CN3CCOCC3)c(O)ccc12 | inconclusive [inhibitor, partial curve] | –

SMILES | Potency | activity change, negative = inhibition
N#Cc1c(/N=C/c2cccs2)sc2c1CCC2 | active: 20 µM | –
C[C@H]1Cc2c(COc3ccccc3)nc3c(c2CO1)CN(S(=O)(=O)c1ccc(C#N)cc1)CC3 | – | inactive: -1.61%
CCN1CCCC1Cn1cnc2c([nH]c3ccc(Cl)cc32)c1=O (configuration not stated) | inconclusive [inhibitor, partial curve, poor fit] | –
N#Cc1nc(-c2ccc(OCc3ccc(Cl)cc3)cc2)oc1N1CCC(C(N)=O)CC1 | inconclusive [inhibitor, single point] | –
COc1ccccc1C1CN(c2ccccc2)N=C1c1cccs1 (configuration not stated) | inconclusive [inhibitor, partial curve] | –
COCCNC(=O)CSc1ncnc2sccc12 | active: 17.8 µM | –
CCCCC(=O)Nc1ccc(C(=O)N2CCCC(C(=O)OCC)C2)cc1 (configuration not stated) | active: 14.1 µM | –
Cc1c(N2C(=O)/C(=C/c3ccccc3)SC2=S)c(=O)n(-c2ccccc2)n1C | – | inactive: -8.27%
COC(=O)c1ccc(C(=O)OC)c(NC(=O)COC(=O)C2CC2C)c1 (configuration not stated) | inconclusive [inhibitor, partial curve] | –
CCn1c(=N)n(CC(=O)C(C)(C)C)c2ccccc21 | inconclusive [inhibitor, partial curve] | –
C#CCN1C(=O)C(O)(CC(=O)c2ccc(OC)c(OC)c2)c2ccccc21 (configuration not stated) | – | inactive: -15.1%
O=C(O)c1ccc(COc2ccccc2Cl)cc1 | active: 12.6 µM | –
CC1(C)Cc2c(C#N)c(OCC(=O)c3ccccc3)nc(-c3ccoc3)c2CO1 | inconclusive [inhibitor, partial curve] | –
O=C(NCCOc1ccccc1)c1ccccc1 | inconclusive [inhibitor, partial curve] | –
CCOc1cc(S(=O)(=O)Nc2ccc(Cl)cn2)ccc1Cl | – | inactive: -0.331%
CCc1ccc(-n2c(Cn3nc(C(F)(F)F)cc3C)n[nH]c2=S)cc1 | inconclusive [inhibitor, partial curve] | –
CC(C)OC(=O)CCc1nc2ccccc2[nH]c1=O | inconclusive [inhibitor, single point] | –
CCc1cc(-c2n[nH]c(=S)n2Cc2ccccc2)cs1 | active: 14.1 µM | –
CC1(C)Oc2ccc(/C=C/C(=O)N3CCOCC3)c(O)c2C(N2CCOCC2)C1O (configuration not stated) | inconclusive [inhibitor, partial curve] | –
O=C(c1ccco1)n1nc(-c2ccc(Cl)cc2)nc1NCc1ccco1 | inconclusive [inhibitor, single point] | –
COc1ccc(CNC(=O)CCSCc2cccc(Cl)c2)c(OC)c1 | active: 28.2 µM | –
Cc1cccc(NC(=S)NNC(=O)c2csc3c2CCCC3)c1 | – | inactive: 0.805%
Cc1ccc(-n2c(-c3cccc(C)c3)n[nH]c2=S)cc1 | active: 22.4 µM | –
CCOC(=O)c1[nH]c2ccc(OC)cc2c1NC(=O)OC | inconclusive [inhibitor, partial curve] | –

SMILES | Potency | activity change, negative = inhibition
CN1C(=O)/C(=C/c2ccc(-c3ccccc3[N+](=O)[O-])o2)SC1=Nc1ccc(Cl)c(C(=O)O)c1 | active: 14.1 µM | –
COCCNC(=O)CSCc1c(F)cccc1Cl | active: 22.4 µM | –
COc1cc(/C=C/C(=O)N2CCN(CC(O)COc3ccccc3)CC2)cc(OC)c1OC (configuration not stated) | inconclusive [inhibitor, partial curve, poor fit] | –
O=C(C[C@@H](C(=O)O)N1CCOCC1)c1ccccc1 | – | inactive: -2.86%
CC(C)OC(=O)CSc1nc(N)c(C#N)c(-c2ccco2)c1C#N | inconclusive [inhibitor, partial curve] | –
Cc1ccc(O)c(C2=NOC(O)(C(F)(F)C(F)F)C2)c1 (configuration not stated) | active: 5.01 µM | –
O=c1oc2ccccc2cc1-c1ccc(O)cc1 | inconclusive [inhibitor, full curve, poor fit] | –
COc1ccc(C2(C(=O)Nc3ccc(C(=O)N4CCOCC4)cc3)CCOCC2)cc1 | inconclusive [inhibitor, partial curve] | –
Cc1sc2nc(-c3ccccc3)[nH]c(=O)c2c1-c1ccccc1 | inconclusive [inhibitor, partial curve] | –
COc1cc(CNn2nnnc2N)cc(Br)c1OCc1c(Cl)cccc1Cl | active: 15.8 µM | –
Cc1cc(/C=N/n2cnnc2)c(C)n1-c1ccc(C(=O)O)cc1 | – | inactive: -16%
Cc1ccc(CNc2ccc(O)cc2)cc1 | inconclusive [inhibitor, single point] | –
Nc1nnnn1/N=C/c1cc(Cl)cc(Cl)c1OCc1ccc(Cl)cc1Cl | inconclusive [inhibitor, full curve] | –
O=C1CN(C(=O)CSc2nc(-c3ccccc3)cs2)c2ccccc2N1 | active: 17.8 µM | –
CCN1CCCC1Cn1cnc2c([nH]c3cccc(Cl)c32)c1=O (configuration not stated) | inconclusive [inhibitor, partial curve] | –
O=C(N/C=N/OCc1cccc(C(F)(F)F)c1)N1OC[C@@H]2COc3ccc4ccccc4c3[C@@H]21 | – | inactive: -19.7%
CC(C)c1ccc(Oc2cccc(C(=O)/C(C#N)=C/N(C)C)c2)cc1 | active: 15.8 µM | –
Cc1c(C(=O)OCC2CCCO2)[nH]c2c1C(=O)CC(c1ccco1)C2 (configuration not stated) | inconclusive [inhibitor, partial curve] | –
Cc1c(C(=O)Nc2ccc(Cl)cc2)c2ccccn2c1CCc1ccncc1 | inconclusive [inhibitor, partial curve] | –
CCCCc1nnc(NC(=O)CSc2nc(C)cc(=O)[nH]2)s1 | inconclusive [inhibitor, partial curve, poor fit] | –
COc1ccc2c(c1)C(=O)[C@H](OC(=O)N[C@H](C)C1CCCCC1)[C@@H](c1ccc(OC)c(Br)c1)O2 | – | inactive: -2.81%
COc1ccccc1-c1nc2cc3ccccc3cc2nc1-c1ccccc1OC | inconclusive [inhibitor, partial curve] | –
Cc1ccc(S(=O)(=O)Nc2nc3ccccc3nc2NCc2ccc3c(c2)OCO3)cc1C | inconclusive [inhibitor, single point] | –
COc1ccccc1-c1cc(=O)c2cccc(OC)c2o1 | inconclusive [inhibitor, partial curve] | –

Source: PubChem BioAssay AID894 (National Center for Advancing Translational Sciences (NCATS), 2007)
